Reference: the supplement of paper PMC8728848
The list shows a part of the results.

Columns and labels:
Assay in all cases: glycan array binding signal (z-score within array); higher = stronger binding
Conditions in all cases: glycan notation: IUPAC condensed, linker removed
[1] = target: GlcNAc(b1-3)Gal(b1-4)GlcNAc
Procedure, shortened: (§1)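 Negative Z-scores can be read as non-binding. The Z-score is calculated within each array and then averaged across arrays of one protein sequence at different concentrations or buffers and across linkers. Arrays, 3228 in all, were curated from the Consortium for Functional Glycomics database and kept only where the protein sequence was available.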

[2] = target: GlcNAc(b1-3)Gal(b1-4)GlcNAc(b1-3)Gal(b1-4)GlcNAc
Procedure, shortened: as §1

GlcNAc(b1-3)GalNAc = target: GlcNAc(b1-3)GalNAc
Procedure, shortened: as §1

[3] = target: GlcNAc(b1-3)[GlcNAc(b1-6)]Gal(b1-4)GlcNAc
Procedure, shortened: as §1

[4] = target: GlcNAc(b1-3)[GlcNAc(b1-6)]GalNAc
Procedure, shortened: as §1

[5] = target: GlcNAc(b1-3)[GlcNAc(b1-6)]GlcNAc(b1-4)GlcNAc
Procedure, shortened: as §1

[6] = target: GlcNAc(b1-4)Gal(b1-4)GlcNAc
Procedure, shortened: as §1

[7] = target: GlcNAc(b1-4)GlcNAc(b1-4)GlcNAc
Procedure, shortened: as §1

[8] = target: GlcNAc(b1-4)GlcNAc(b1-4)GlcNAc(b1-4)GlcNAc(b1-4)GlcNAc
Procedure, shortened: as §1

[9] = target: GlcNAc(b1-4)GlcNAc(b1-4)GlcNAc(b1-4)GlcNAc(b1-4)GlcNAc(b1-4)GlcNAc
Procedure, shortened: as §1

[10] = target: GlcNAc(b1-4)[GlcNAc(b1-6)]GalNAc
Procedure, shortened: as §1

[11] = target: GlcNAc(b1-6)Gal(b1-4)GlcNAc
Procedure, shortened: as §1

GlcNAc(b1-6)GalNAc = target: GlcNAc(b1-6)GalNAc
Procedure, shortened: as §1

Kdn(a2-3)Gal(b1-3)GlcNAc = target: Kdn(a2-3)Gal(b1-3)GlcNAc
Procedure, shortened: as §1

Kdn(a2-3)Gal(b1-4)GlcNAc = target: Kdn(a2-3)Gal(b1-4)GlcNAc
Procedure, shortened: as §1

[12] = target: Man(a1-2)Man(a1-2)Man(a1-3)Man
Procedure, shortened: as §1

[13] = target: Man(a1-2)Man(a1-2)Man(a1-6)[Man(a1-3)]Man
Procedure, shortened: as §1

Man(a1-2)Man(a1-3)Man = target: Man(a1-2)Man(a1-3)Man
Procedure, shortened: as §1

[14] = target: Man(a1-2)Man(a1-3)[Man(a1-2)Man(a1-6)]Man
Procedure, shortened: as §1

[15] = target: Man(a1-2)Man(a1-3)[Man(a1-2)Man(a1-6)]Man(a1-6)[Man(a1-2)Man(a1-2)Man(a1-3)]Man(b1-4)GlcNAc(b1-4)GlcNAc
Procedure, shortened: as §1

[16] = target: Man(a1-2)Man(a1-3)[Man(a1-6)]Man(a1-6)[Man(a1-2)Man(a1-3)]Man(b1-4)GlcNAc(b1-4)GlcNAc
Procedure, shortened: as §1

[17] = target: Man(a1-2)Man(a1-6)[Man(a1-3)]Man(a1-6)[Man(a1-2)Man(a1-2)Man(a1-3)]Man(b1-4)GlcNAc(b1-4)GlcNAc
Procedure, shortened: as §1

Man(a1-3)[Man(a1-6)]Man = target: Man(a1-3)[Man(a1-6)]Man
Procedure, shortened: as §1

[18] = target: Man(a1-3)[Man(a1-6)]Man(a1-6)[Man(a1-2)Man(a1-3)]Man(b1-4)GlcNAc(b1-4)GlcNAc
Procedure, shortened: as §1

[19] = target: Man(a1-3)[Man(a1-6)]Man(a1-6)[Man(a1-3)]Man(b1-4)GlcNAc(b1-4)GlcNAc
Procedure, shortened: as §1

[20] = target: Man(a1-3)[Man(a1-6)]Man(b1-4)GlcNAc(b1-4)GlcNAc
Procedure, shortened: as §1

Man(b1-4)GlcNAc = target: Man(b1-4)GlcNAc
Procedure, shortened: as §1

Neu5Ac(a2-3)Gal = target: Neu5Ac(a2-3)Gal
Procedure, shortened: as §1

[21] = target: Neu5Ac(a2-3)Gal(b1-3)GalNAc
Procedure, shortened: as §1

[22] = target: Neu5Ac(a2-3)Gal(b1-3)GalNAc(b1-3)Gal(a1-4)Gal(b1-4)Glc
Procedure, shortened: as §1

[23] = target: Neu5Ac(a2-3)Gal(b1-3)GalNAc(b1-3)Gal(b1-4)GlcNAc
Procedure, shortened: as §1

[24] = target: Neu5Ac(a2-3)Gal(b1-3)GalNAc(b1-4)[Neu5Ac(a2-3)]Gal(b1-4)Glc
Procedure, shortened: as §1

[25] = target: Neu5Ac(a2-3)Gal(b1-3)GalNAc6S
Procedure, shortened: as §1

[26] = target: Neu5Ac(a2-3)Gal(b1-3)GlcNAc
Procedure, shortened: as §1

[27] = target: Neu5Ac(a2-3)Gal(b1-3)GlcNAc6S
Procedure, shortened: as §1

[28] = target: Neu5Ac(a2-3)Gal(b1-3)[Fuc(a1-4)]GlcNAc
Procedure, shortened: as §1

[29] = target: Neu5Ac(a2-3)Gal(b1-3)[Fuc(a1-4)]GlcNAc(b1-3)Gal(b1-4)[Fuc(a1-3)]GlcNAc
Procedure, shortened: as §1

[30] = target: Neu5Ac(a2-3)Gal(b1-3)[Neu5Ac(a2-3)Gal(b1-4)]GlcNAc
Procedure, shortened: as §1

[31] = target: Neu5Ac(a2-3)Gal(b1-3)[Neu5Ac(a2-6)]GalNAc
Procedure, shortened: as §1

Neu5Ac(a2-3)Gal(b1-4)Glc = target: Neu5Ac(a2-3)Gal(b1-4)Glc
Procedure, shortened: as §1

[32] = target: Neu5Ac(a2-3)Gal(b1-4)GlcNAc
Procedure, shortened: as §1

B1: AICL (Homo sapiens), Q92478 (protein)
chain: MMTKHKKCFIIVGVLITTNIITLIVKLTRDSQSLCPYDWIGFQNKCYYFSKEEGDWNSSKYNCSTQHADLTIIDNIEEMNFLRRYKCSSDHWIGLKMAKNRTGQWVDGATFTKSFGMRGSEGCAYLSDDGAATARCYTERKWICRKRIH
**Q.** B1 was tested. Which “glycan array binding signal (z-score)” value [1] did it give?
**A.** -0.146

**Q.** And the “glycan array binding signal (z-score)” value [2]?
**A.** -0.374

**Q.** And the “glycan array binding signal (z-score)” value (GlcNAc(b1-3)GalNAc)?
**A.** -0.445

**Q.** And the “glycan array binding signal (z-score)” value [3]?
**A.** -0.49

**Q.** And the “glycan array binding signal (z-score)” value [4]?
**A.** -0.206

**Q.** And the “glycan array binding signal (z-score)” value [5]?
**A.** -0.343

**Q.** What about the “glycan array binding signal (z-score)” value [6] of the same binder?
**A.** -0.428

**Q.** And the “glycan array binding signal (z-score)” value [7]?
**A.** -0.413

**Q.** And the “glycan array binding signal (z-score)” value [8]?
**A.** -0.283

**Q.** What about the “glycan array binding signal (z-score)” value [9] of the same binder?
**A.** -0.249

**Q.** What about the “glycan array binding signal (z-score)” value [10] of the same binder?
**A.** -0.45

**Q.** What about the “glycan array binding signal (z-score)” value [11] of the same binder?
**A.** -0.336

**Q.** And the “glycan array binding signal (z-score)” value (GlcNAc(b1-6)GalNAc)?
**A.** -0.245

**Q.** And the “glycan array binding signal (z-score)” value (Kdn(a2-3)Gal(b1-3)GlcNAc)?
**A.** -0.464

**Q.** And the “glycan array binding signal (z-score)” value (Kdn(a2-3)Gal(b1-4)GlcNAc)?
**A.** 2.06

**Q.** And the “glycan array binding signal (z-score)” value [12]?
**A.** 0.265

**Q.** And the “glycan array binding signal (z-score)” value [13]?
**A.** -0.294

**Q.** And the “glycan array binding signal (z-score)” value (Man(a1-2)Man(a1-3)Man)?
**A.** 0.064

**Q.** What about the “glycan array binding signal (z-score)” value [14] of the same binder?
**A.** -0.4

**Q.** And the “glycan array binding signal (z-score)” value [15]?
**A.** -0.014

**Q.** And the “glycan array binding signal (z-score)” value [16]?
**A.** 0.965

**Q.** What about the “glycan array binding signal (z-score)” value [17] of the same binder?
**A.** -0.226

**Q.** And the “glycan array binding signal (z-score)” value (Man(a1-3)[Man(a1-6)]Man)?
**A.** -0.2

**Q.** What about the “glycan array binding signal (z-score)” value [18] of the same binder?
**A.** 0.372

**Q.** What about the “glycan array binding signal (z-score)” value [19] of the same binder?
**A.** 0.406

**Q.** And the “glycan array binding signal (z-score)” value [20]?
**A.** -0.327

**Q.** And the “glycan array binding signal (z-score)” value (Man(b1-4)GlcNAc)?
**A.** -0.401

**Q.** What about the “glycan array binding signal (z-score)” value (Neu5Ac(a2-3)Gal) of the same binder?
**A.** -0.489

**Q.** What about the “glycan array binding signal (z-score)” value [21] of the same binder?
**A.** -0.253

**Q.** What about the “glycan array binding signal (z-score)” value [22] of the same binder?
**A.** -0.193

**Q.** And the “glycan array binding signal (z-score)” value [23]?
**A.** -0.503

**Q.** What about the “glycan array binding signal (z-score)” value [24] of the same binder?
**A.** -0.392

**Q.** And the “glycan array binding signal (z-score)” value [25]?
**A.** -0.235

**Q.** What about the “glycan array binding signal (z-score)” value [26] of the same binder?
**A.** -0.321

**Q.** And the “glycan array binding signal (z-score)” value [27]?
**A.** -0.227

**Q.** What about the “glycan array binding signal (z-score)” value [28] of the same binder?
**A.** -0.312

**Q.** And the “glycan array binding signal (z-score)” value [29]?
**A.** 0.781

**Q.** And the “glycan array binding signal (z-score)” value [30]?
**A.** -0.461

**Q.** What about the “glycan array binding signal (z-score)” value [31] of the same binder?
**A.** -0.178

**Q.** What about the “glycan array binding signal (z-score)” value (Neu5Ac(a2-3)Gal(b1-4)Glc) of the same binder?
**A.** 0.601

**Q.** What about the “glycan array binding signal (z-score)” value [32] of the same binder?
**A.** -0.411
